# Laboratory results published in ChEMBL document CHEMBL4888484, “Replenishing the malaria drug discovery pipeline: Screening and hit evaluation of the MMV Hit Generation Library 1 (HGL1) against asexual blood stage Plasmodium falciparum ,using a nano luciferase reporter read-out” (2022).
# Hit rate of the full screen: of about 4,800 compounds, about 410 (8.5%) showed an effect of 50% or more. The list shows a part of the results.
# System: Plasmodium falciparum
# Experiment: Confirmatory screen in NF54 pLDH assay, in single point, at 2uM, 72h
# Assay type: functional, Erythrocyte
# Details: timepoint 72 hour
row,SMILES,% Inhibition [%]
1,O=C(CCC(=O)N1CCCCCC1)NCc1cccs1,3
2,Cc1ccc(/C=C(\C(=O)NC[C@H]2CCCO2)n2ccccc2=O)cc1,12
3,Cc1ccc(S(=O)(=O)N2CC(C)N(C(=O)N3CCOCC3)C2C)cc1 (stereo not drawn),14
4,CCn1c(C)c(C)c2cc(C(=O)Nc3cccc(S(=O)(=O)N4CCOCC4)c3)ccc21,4
5,C[C@H](NC(=O)c1cocn1)c1ccccc1NC(=O)c1cocn1,-7
6,CCC(C)(CC)[C@@](O)(C#CC[N+]1(Cc2ccccc2)CCCCC1)c1ccccc1,22
7,COc1cc(CNCCc2ccccc2F)ccc1OCc1nnnn1-c1ccc(C)cc1,11
8,Cc1ccc(Cn2cnc(NC(=O)CCn3c(=O)cc(C(F)F)c4cn(C)nc43)n2)cc1,1
9,CCCN(Cc1c(C)nn(-c2ccccc2)c1N1CCN(CC)CC1)S(=O)(=O)c1ccc(C)cc1,-27
10,Cc1ccc(-c2cc3c(N4CCCN(C)CC4)nccn3n2)c(C)c1,14
11,COc1ccc(S(=O)(=O)N2CCN(Cc3noc(CCC(=O)N(C)Cc4ccccc4)n3)CC2)cc1,-3
12,CN(Cc1ccccc1)C(=O)C1CC=CCC1C(=O)Nc1ncc(-c2ccc3c(c2)OCO3)n1C (stereo not drawn),6
13,O=C(NCCN1CCCC1)c1ccc2nc(-c3ccc(Cl)cc3)cn2c1,70
14,CCNC(=O)C(=O)NCc1ccc(Cl)cc1,12
15,NC(=O)c1ccccc1NC(=O)C1CCN(c2cc(C3CC3)ncn2)CC1,2
16,CNC(=O)c1cc(NS(=O)(=O)N2CCCCCC2)ccc1F,-8
17,CCN1CCN(c2cccc(NC(=O)c3cc(F)cc4c(=O)c5cc(F)ccc5[nH]c34)c2)CC1,96
18,COc1ccccc1C(=O)NC1=C(C)Nc2ncnn2[C@H]1c1c[nH]c2ccccc12,-5
19,Cc1noc([C@H](C)S(=O)(=O)Cc2cc(C)on2)n1,9
20,CN(CCCNC(=O)Cc1n[nH]c(=O)c2ccccc12)Cc1ccccc1,9
21,CCS(=O)(=O)c1cccc(N[C@@H](C)COC)c1,1
22,CC1CCC2(CC1)N=C(c1ccccc1)C(=O)N2CC(=O)N[C@H]1CCc2ccccc21 (stereo partly drawn),-4
23,C[C@@H]1NC(=O)N(C2CCCN(Cc3cccc(C(F)(F)F)c3)C2=O)C1=O (stereo partly drawn),-11
24,C[C@@H]1Oc2ccc(-c3csc(NC(=O)c4ccccc4Cl)n3)cc2N(C)C1=O,12
25,C[C@H](NC(=O)c1cc(F)cc(F)c1)c1ccccc1NC(=O)c1cc(F)cc(F)c1,1

row,SMILES,% Inhibition [%]
1,O=C(CN1CCCCC1=O)NCCc1c[nH]c2ccccc12,-15
2,Cn1n[n+](CCCCC(Cl)(Cl)Cl)c2ccccc21,52
3,CN(C)/C=C/c1cc(C#N)c(C#N)cc1Br,6
4,c1cc(-c2nc3cc4ccccc4cc3[nH]2)nc(-c2nc3cc4ccccc4cc3[nH]2)c1,97
5,COc1cccc(CCc2ccccc2OC[C@H](CN(C)C)OC(=O)CCC(=O)O)c1,-5
6,COc1cc(C(c2c(C)n(C)n(-c3ccccc3)c2=O)c2c(C)n(C)n(-c3ccccc3)c2=O)c(Br)c(Br)c1OCc1ccccc1,5
7,Cc1nn(-c2ncc(C(F)(F)F)cc2Cl)c(=O)n1-c1ccc(OCc2ccccc2)cc1,-12
8,COc1nc(NC[C@H]2CCCN2C(C)C)ncc1F,83
9,CCn1nccc1C(=O)NC1CCN(c2nnc3ccccn23)CC1,-7
10,CCCN(CCO)C(=O)Nc1ccn(Cc2cn3ccccc3n2)n1,5
11,O=C(NC1CCS(=O)(=O)C1)C1CC=CCC1 (stereo not drawn),0
12,N#CC1CCC(Nc2cnn(-c3ccncc3)c2)CC1 (stereo not drawn),11
13,COCCN1CC2(CCCC2)N(C(=O)COc2ccc(F)cc2)CC1=O,-9
14,Cc1ccc(N(Cc2cccs2)C(=O)c2cccs2)cc1Cl,31
15,O=C(c1ccccc1)c1c[nH]c2c(F)cc(F)cc2c1=O,2
16,Cc1cccc(C)c1NC(=O)C1(N(Cc2ccco2)C(=O)c2ccc(Cl)cc2)CCC(C)CC1 (stereo not drawn),9
17,C[C@H](NC(=O)c1ccsc1)c1cccs1,2
18,Cc1ccc(C)c(C(=O)CN2Cc3ccccc3C2=N)c1,12
19,Cc1c(C(C)C)c(=O)n(-c2ccc(S(=O)(=O)N3CCN(c4nc5ccccc5nc4-c4ccccc4)CC3)cc2)n1C,-10
20,Cc1cc(C)n(C(=O)CNC(=O)c2cccs2)n1,-25
21,Cc1ccccc1Cn1cnc2c1c(=O)n(C1CCCCC1)c(=O)n2-c1ccccc1Cl,82
22,c1ccc(N2CCN(c3nc(N4CCCC4)c4nccnc4n3)CC2)cc1,-1
23,COc1c[nH]c(C(=O)NC2CCN(Cc3ccccc3)CC2)cc1=O,1
24,O=C(CCC(=O)c1ccccc1)NC1CCC(O)CC1 (stereo not drawn),10
25,CCOc1c(CNCCN(C)C)cc(Br)cc1OC,3

row,SMILES,% Inhibition [%]
1,Cc1onc(-c2ccccc2)c1C(=O)c1c[nH]c(C(=O)NCc2ccncc2)c1,11
2,Cc1cc(N2C(=O)CCS2(=O)=O)cc(C)c1S(=O)(=O)NCc1ccccn1,9
3,CCOC(=O)c1ccc(N2CCN(Cc3ccccc3)CC2)c(NC(=O)COc2ccc(Cl)cc2C)c1,-9
4,NCc1cccc(C(=O)N2CCc3cc4ccc3[C@@H]2c2cccc(c2)OCCCNC(=O)c2cc(ccc2O)O4)c1,98
5,CNC(=O)COc1c(Cl)ccc(Cl)c1Br,8
6,O=C(NC1(C(F)(F)F)Oc2cc(Cl)c(Cl)cc2O1)N1CCCC1,-6
7,Cc1nc[nH]c1CN1CCN(C(=O)CCC(C)C)[C@H]2CS(=O)(=O)C[C@H]21,4
8,C[C@]1(CCc2ccc(O)cc2)Nc2ccccc2-c2nc(=O)c(-c3ccc(F)cc3)nn21,-12
9,Cc1ccc(C)c(C(=O)Cn2nc3ccc(-c4ccc(Cl)cc4)nn3c2=O)c1,6
10,Cc1oc(C(=O)N2CC3(CCCC3)c3ccccc32)cc1S(=O)(=O)N(C)C,-1
11,Cn1c(-c2ccc(-c3ccccc3)cc2)cn2cc(-c3cccc(Br)c3)nc12,10
12,Cc1ccnc2nc(C(=O)N(C)c3ccc(Cl)cn3)nn12,13
13,CCN(C[C@H]1CCCO1)C(=O)c1cnc(Cc2ccccc2)s1,-15
14,O=C(Nc1ccccc1CN1CCc2ccccc21)NC1CCC(O)CC1 (stereo not drawn),-8
15,CCN(CCN(C)C)C(=O)c1cccc(-c2ccc3nccc(N)c3c2)c1,96
16,CC(C)c1cnc(NCCCC[C@H]2CCCO2)nc1,-14
17,CCn1cnc2c(N3CCC[C@H](c4ccncc4)C3)ncnc21,77
18,CCOC(=O)C1CCN(C(=O)c2nc(-c3ccc(N4CCCC4)nc3)no2)CC1,12
19,COc1ccc(-c2noc(Cn3c(=O)c4ccccc4n(CC(=O)NCCc4ccc(OC)c(OC)c4)c3=O)n2)cc1,6
20,COC1C(C(N)=O)OC2OC3(CCCCC3)OC21 (stereo not drawn),-4
21,COc1cc(C(=O)Nc2ccc3sc(NC(=O)c4cc(OC)c(OC)c(OC)c4)nc3n2)cc(OC)c1OC,67
22,O=C(Cn1c(=O)n(Cc2nc(-c3ccccc3)no2)c(=O)c2ccccc21)Nc1cccc(Cl)c1,5
23,CC(CNc1ccccn1)N1CCOCC1C (stereo not drawn),0
24,O=C(NCc1ncc[nH]1)[C@@H]1COc2ccc(Br)cc21,11
25,COc1ccc(CNC(=O)N2C[C@H](C)OC3(CCCCC3)C2)cc1OC(F)F,-8

row,SMILES,% Inhibition [%]
1,CC(C(=O)N1N=CCC1(O)C(F)(F)F)n1nc(C(F)(F)F)cc1C1CC1 (stereo not drawn),7
2,O=S(=O)(c1ccccc1F)C1CNC1,-18
3,O=C(Nc1cccc(Oc2c(F)c(F)c(-c3c(F)c(F)c(Oc4cccc(NC(=O)c5ccccc5)c4)c(F)c3F)c(F)c2F)c1)c1ccccc1,15
4,CCn1ccc(C(=O)NC2CCN(c3nnc4ccc(Cl)cn34)CC2)n1,1
5,Cc1cc(NS(=O)(=O)c2cccs2)n(-c2ccncc2)n1,9
6,CCC(=O)Nc1nc(-c2ccccc2)nc2c1C(=O)CCC2,11
7,CC(C)(C)c1ccc(C(=O)N[C@H]2CCCC[C@@H]2NC(=O)c2ccc(C(C)(C)C)cc2)cc1,2
8,CCN1CCN(CC(=O)N2N=C(c3ccc(C)c(C)c3)C[C@H]2c2cccn2C)CC1,2
9,Cc1cc(Oc2ncccn2)ccc1NC(=O)N1CCOCC1,13
10,Oc1ccc2cc(CN3CCC[C@H](CN4CCCC4)C3)ccc2c1,97
11,O=C(Nc1cccc2cccnc12)c1cncc(Br)c1,-8
12,Cc1ccc(NC(=O)CN2N=C(C(=O)Nc3ccc(F)cc3)CCC2=O)cc1F,-1
13,Brc1cccc2c1OCC[C@@H]2Nc1ncnc2nc[nH]c12,4
14,COc1ccc(-c2nn(CN(C)OC)c(=S)o2)cc1OC,-17
15,CN1c2cc(C(=O)N3CCc4ccccc4C3)ccc2C(=O)N2CCCC[C@H]21,-1
16,COc1ccccc1C(=O)N1CCC([C@H](NC(=O)c2ccc3c(c2)OCO3)C(=O)NC(C)C)CC1,10
17,CN(c1ccc(Br)cc1)S(=O)(=O)c1ccc2c(c1)CCN2C(=O)C1CCC1,10
18,CNC(=O)Cc1noc(-c2sccc2C#N)n1,-8
19,Cc1ncsc1CNS(=O)(=O)c1ccc(OCC(F)F)cc1,7
20,C#CCN(C(=O)c1cnn(CC(C)C)c1C(F)F)c1nccs1,-12
21,Cc1cccc(S(=O)(=O)Nc2ccc3nc(NC(=O)c4ccccc4)sc3c2)c1,7
22,Cc1cc(NC(=O)c2ccn(-c3nc(-c4cnn(C)c4)cc(C(F)(F)F)n3)n2)no1,11
23,C[C@H]1CCN(c2nc(-c3ccccn3)nc3c2CCC3)C1,93
